Laboratory results reported in DBAASP.
≈ marks a conversion by molar mass, not a printed value.

Tests used:
Test in all cases: ≥ marks a high value that may be exact or a test limit, other limits are often not marked
[1] = tested on: Staphylococcus aureus ATCC 6538
[2] = tested on: Bacillus subtilis ATCC 9372
[3] = tested on: Proteus vulgaris NCTC 4635
[4] = tested on: Escherichia coli ATCC 8739
[5] = tested on: Pseudomonas aeruginosa ATCC 9027
Candida albicans = tested on: Candida albicans
[6] = tested on: Pseudomonas aeruginosa ATCC 27853
[7] = tested on: Staphylococcus epidermidis RP62A
[8] = tested on: Escherichia coli ATCC 25922
[9] = tested on: Proteus mirabilis ATCC 25933
Staphylococcus aureus = tested on: Staphylococcus aureus
[10] = tested on: Enterobacter cloacae HNTCC 53001
Escherichia coli = tested on: Escherichia coli
[11] = tested on: Staphylococcus aureus NCTC 8325
[12] = tested on: Klebsiella pneumoniae KK3 9904
[13] = tested on: Enterococcus faecalis ATCC 29212
[14] = tested on: Candida albicans ATCC 90028
[15] = tested on: Proteus vulgaris NBRC 3045
[16] = tested on: Bacillus megaterium KCTC 1096
[17] = tested on: Escherichia coli KCTC 1682
[18] = tested on: Candida albicans KCTC 7121
[19] = tested on: Staphylococcus aureus KCTC 1621
Proteus vulgaris = tested on: Proteus vulgaris
[20] = tested on: Pseudomonas aeruginosa KCTC 1637
[21] = tested on: Bacillus subtilis KCTC 1918
[22] = tested on: Aspergillus flavus KCTC 7375
[23] = tested on: Trichosporon beigelii KCTC 7251
[24] = tested on: Fusarium oxysporum KCTC 6084

CC[C@H](C)[C@H](NC(=O)[C@@H](NC(=O)[C@H](CO)NC(=O)[C@H](C)NC(=O)[C@@H](NC(=O)[C@H](CCCCN)NC(=O)[C@H](CCCCN)NC(=O)[C@@H](NC(=O)[C@@H](NC(=O)[C@H](C)NC(=O)[C@H](Cc1ccccc1)NC(=O)[C@H](CC(C)C)NC(=O)CN)C(C)C)[C@@H](C)CC)C(C)C)C(C)C)C(=O)O [GLFAVIKKVASVI]
MIC [1]: 11.9 µM (≈ 16 µg/mL)
MIC [2]: 11.9 µM (≈ 16 µg/mL)
MIC [3]: ≥ 190 µM
MIC [4]: 11.9 µM (≈ 16 µg/mL)
MIC [5]: 47.6 µM (≈ 64 µg/mL)

CC[C@H](C)[C@H](NC(=O)[C@@H](NC(=O)[C@H](CC(=O)O)NC(=O)[C@H](Cc1ccccc1)NC(=O)[C@H](CC(C)C)NC(=O)CN)C(C)C)C(=O)N[C@@H](CCCCN)C(=O)N[C@@H](CCCCN)C(=O)N[C@H](C(=O)O)C(C)C [GLFDVIKKV]
MIC [1]: > 1010 µM
MIC [2]: ≥ 1010 µM
MIC [3]: ≥ 1010 µM
MIC [4]: ≥ 1010 µM
MIC [5]: 1010 µM (≈ 1020 µg/mL)

CC[C@H](C)[C@H](NC(=O)CNC(=O)[C@H](CCC(N)=O)NC(=O)[C@H](Cc1ccccc1)NC(=O)[C@@H](NC(=O)[C@H](CCCCN)NC(=O)[C@H](CCCCN)NC(=O)[C@H](CC(C)C)NC(=O)[C@H](C)NC(=O)[C@H](CC(N)=O)NC(=O)[C@H](CC(C)C)NC(=O)CN)C(C)C)C(=O)N[C@@H](Cc1c[nH]cn1)C(=O)N[C@@H](CCC(=O)O)C(=O)N[C@@H](C)C(=O)N[C@H](C(=O)N[C@@H](CCCCN)C(=O)N[C@@H](CC(C)C)C(=O)N[C@H](C(=O)N[C@@H](CC(N)=O)C(=O)N[C@@H](CC(N)=O)C(=O)N[C@@H](Cc1c[nH]cn1)C(=O)N[C@H](C(=O)N[C@@H](CCC(N)=O)C(=O)O)C(C)C)[C@@H](C)CC)[C@@H](C)CC [GLNALKKVFQGIHEAIKLINNHVQ]
MIC (Candida albicans): 130 µM (≈ 349 µg/mL)
MIC [6]: 80 µM (≈ 215 µg/mL)
MIC [7]: ≥ 80 µM
MIC [8]: 20 µM (≈ 53.7 µg/mL)
MIC [9]: ≥ 80 µM
MIC (Staphylococcus aureus): 80 µM (≈ 215 µg/mL)
MIC [10]: ≥ 80 µM
MIC (Escherichia coli): 2.5 µM (≈ 6.71 µg/mL)
MIC [11]: ≥ 80 µM
MIC [12]: ≥ 40 µM
MIC [13]: > 80 µM
MIC [14]: ≥ 80 µM

CC(C)C[C@H](NC(=O)CNC(=O)CNC(=O)CNC(=O)[C@H](CCCCN)NC(=O)[C@H](CCCCN)NC(=O)[C@H](CCCCN)NC(=O)[C@H](CCCCN)NC(=O)[C@H](CCCCN)NC(=O)[C@H](CCCCN)NC(=O)[C@H](CCCCN)NC(=O)[C@H](CCCCN)NC(=O)[C@@H](N)CCCCN)C(=O)N[C@@H](CC(C)C)C(=O)N[C@@H](C)C(=O)N[C@@H](CC(C)C)C(=O)N[C@@H](CC(C)C)C(=O)N[C@@H](C)C(=O)N[C@@H](CC(C)C)C(=O)N[C@@H](CC(C)C)C(=O)N[C@@H](C)C(N)=O [KKKKKKKKKGGGLLALLALLA]
MIC [15]: ≥ 100 µM

CC[C@H](C)[C@H](NC(=O)[C@H](CCCCN)NC(=O)[C@H](CCCCN)NC(=O)[C@H](Cc1ccccc1)NC(=O)[C@H](CC(C)C)NC(=O)[C@H](CCCCN)NC(=O)[C@H](Cc1c[nH]c2ccccc12)NC(=O)[C@@H](N)CCCCN)C(=O)N1CCC[C@H]1C(=O)N[C@@H](CCCCN)C(=O)N[C@@H](Cc1ccccc1)C(=O)N[C@@H](CC(C)C)C(=O)N[C@@H](Cc1cnc[nH]1)C(=O)N[C@@H](CC(C)C)C(=O)N[C@@H](C)C(=O)N[C@@H](CCCCN)C(=O)N[C@@H](CCCCN)C(N)=O [KWKLFKKIPKFLHLAKK]
MIC [16]: 1.56 µM (≈ 3.36 µg/mL)
MIC [17]: 6.25 µM (≈ 13.5 µg/mL)
MIC [18]: 25 µM (≈ 53.8 µg/mL)
MIC [19]: 3.12 µM (≈ 6.73 µg/mL)
MIC (Proteus vulgaris): 1.56 µM (≈ 3.36 µg/mL)
MIC [20]: 6.25 µM (≈ 13.5 µg/mL)
MIC [21]: 1.56 µM (≈ 3.36 µg/mL)
MIC [22]: 25 µM (≈ 53.8 µg/mL)
MIC [23]: 25 µM (≈ 53.8 µg/mL)
MIC [24]: 25 µM (≈ 53.8 µg/mL)
